# The other results are listed elsewhere or left out. At the low end of the ranking the order means little.
# Target: GST-SBP-SLBP (stem-loop binding protein) (UniProt Q14493)
# Experiment: targeted RNA Bind-n-Seq;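 further: DESeq read counts versus GST-SBP nonspecific binding control pulldown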
# Settings: RBNS binding buffer: 25 mM Tris pH 7.5, 150 mM KCl, 3 mM MgCl2, 0.1% Tween, 0.5 mg/mL BSA, 1 mM DTT; 27 nM protein, 750 pM RNA pool; temperature not stated; high values mean tight binding
row,Sequence,binding signal (log2 fold change)
1,GGUCACGUCUCAAUCAACUCUUCUCCAGGAGUUUCCUCCUGCUAAUUCAACAGCUCGCAGUCAAG,0.0406
2,GGUCACGUCUCAAUCAACUCAUGUCCCAGGGAAACCCCUGGCUUUUUCAACAGCUCGCAGUCAAG,0.00746
3,GGUCACGUCUCAAUCAACUCUACAGAGGGGGGGAAAACCCCUUUACCCUCCCAUUCAACAGCUCGCAGUCAAG,-0.0307
4,GGUCACGUCUCAAUCAACUCUUUCUCAGGAGUUUCCUCCUGUAUUCUCAACAGCUCGCAGUCAAG,-0.0932
5,GGUCACGUCUCAAUCAACUCUUCGUCAGGAGUUUACUCCUGCUAUUUCAACAGCUCGCAGUCAAG,-0.153
6,GGUCACGUCUCAAUCAACUCUAUCUCAGGAGUUUUCUCCUGUUUUUUCAACAGCUCGCAGUCAAG,-0.105
7,GGUCACGUCUCAAUCAACUCUUUUCCCAGGGAAAGCCCUGGUUAUGUCAACAGCUCGCAGUCAAG,0.0462
8,GGUCACGUCUCAAUCAACUCCAAAGAGGGGGGGAAAACCCCUUUACCCUCAAUUUCAACAGCUCGCAGUCAAG,-0.558
9,GGUCACGUCUCAAUCAACUCAUCGCCAGGAGUUUCCUCCUGUAAAUUCAACAGCUCGCAGUCAAG,-0.128
10,GGUCACGUCUCAAUCAACUCAUUUCCAGGAGUUUGCUCCUGCUAUCUCAACAGCUCGCAGUCAAG,0.0256
11,GGUCACGUCUCAAUCAACUCAACGCCAGGAGUUUACUCCUGUUUUUUCAACAGCUCGCAGUCAAG,-0.141
12,GGUCACGUCUCAAUCAACUCAAUGUCAGGAGUUUCCUCCUGUUAAUUCAACAGCUCGCAGUCAAG,-0.0697
13,GGUCACGUCUCAAUCAACUCCACGGAGGGGGGGAAAACCCCUUUACCCUCACUUUCAACAGCUCGCAGUCAAG,0.177
14,GGUCACGUCUCAAUCAACUCCUUCGAGGGGGGGAAAACCCCUUUACCCUCAUCUUCAACAGCUCGCAGUCAAG,0.0798
15,GGUCACGUCUCAAUCAACUCAUCCUCAGGAGUUUGCUCCUGUAAUUUCAACAGCUCGCAGUCAAG,0.0494
16,GGUCACGUCUCAAUCAACUCCCACGAGGGGGGGAAAACCCCUUUACCCUCAUUAUCAACAGCUCGCAGUCAAG,0.227
17,GGUCACGUCUCAAUCAACUCUAUCUCAGGAGUUUCCUCCUGCAAAUUCAACAGCUCGCAGUCAAG,0.109
18,GGUCACGUCUCAAUCAACUCAGUUUCAGGAGUUUUCUCCUGCAUUCUCAACAGCUCGCAGUCAAG,-0.0965
19,GGUCACGUCUCAAUCAACUCAAUCUCCAGGGAAAGCCCUGGCAUACUCAACAGCUCGCAGUCAAG,-0.0986
20,GGUCACGUCUCAAUCAACUCCCAAGAGGGGGGGAAAACCCCUUUGCCCUCCAAAUCAACAGCUCGCAGUCAAG,-0.0614
21,GGUCACGUCUCAAUCAACUCUUCCUCCAGGGAAAGCCCUGGCUAAUUCAACAGCUCGCAGUCAAG,-0.115
22,GGUCACGUCUCAAUCAACUCAAAUGAGGGGGGGAAAACCCCUUUACCCUCCACAUCAACAGCUCGCAGUCAAG,-0.354
23,GGUCACGUCUCAAUCAACUCAGUCUCAGGAGUUUGCUCCUGCUUUCUCAACAGCUCGCAGUCAAG,0.0674
24,GGUCACGUCUCAAUCAACUCAACUCCAGGAGUUUACUCCUGCAUAUUCAACAGCUCGCAGUCAAG,0.185

row,Sequence,binding signal (log2 fold change)
1,GGUCACGUCUCAAUCAACUCUAUCUCCAGGGAAAACCCUGGCUUUCUCAACAGCUCGCAGUCAAG,0.0859
2,GGUCACGUCUCAAUCAACUCAACAGAGGGGGGGAAAACCCCUUUGCCCUCCAAUUCAACAGCUCGCAGUCAAG,-0.0237
3,GGUCACGUCUCAAUCAACUCAAUUUCCAGGGAAAGCCCUGGUUUUCUCAACAGCUCGCAGUCAAG,-0.152
4,GGUCACGUCUCAAUCAACUCUUUUUCCAGGGAAAGCCCUGGCAAUUUCAACAGCUCGCAGUCAAG,-0.187
5,GGUCACGUCUCAAUCAACUCAGAAGAGGGGGGGAAAACCCCUUUACCCUCAAUAUCAACAGCUCGCAGUCAAG,-0.434
6,GGUCACGUCUCAAUCAACUCUUCGUCCAGGGAAAACCCUGGUUAUCUCAACAGCUCGCAGUCAAG,0.104
7,GGUCACGUCUCAAUCAACUCAAUCUCAGGAGUUUUCUCCUGCUAAGUCAACAGCUCGCAGUCAAG,0.147
8,GGUCACGUCUCAAUCAACUCAUUUCCCAGGGAAAUCCCUGGUAUUUUCAACAGCUCGCAGUCAAG,0.142
9,GGUCACGUCUCAAUCAACUCUUAAGAGGGGGGGAAAACCCCUUUACCCUCAUCUUCAACAGCUCGCAGUCAAG,0.0525
10,GGUCACGUCUCAAUCAACUCCCCGGAGGGGGGGAAAACCCCUUUACCCUCAAAAUCAACAGCUCGCAGUCAAG,-0.105
11,GGUCACGUCUCAAUCAACUCAUCCCCAGGAGUUUUCUCCUGUAAAUUCAACAGCUCGCAGUCAAG,0.213
12,GGUCACGUCUCAAUCAACUCAUUUUCAGGAGUUUGCUCCUGUUUACUCAACAGCUCGCAGUCAAG,0.12
13,GGUCACGUCUCAAUCAACUCUUUCUCCAGGGAAAACCCUGGUUUUCUCAACAGCUCGCAGUCAAG,-0.224
14,GGUCACGUCUCAAUCAACUCAACUCCCAGGGAAAGCCCUGGCAUACUCAACAGCUCGCAGUCAAG,-0.313
15,GGUCACGUCUCAAUCAACUCUCAAGAGGGGGGGAAAACCCCUUUACCCUCCUAAUCAACAGCUCGCAGUCAAG,-0.215
16,GGUCACGUCUCAAUCAACUCUUUCCCCAGGGAAAUCCCUGGUAAUGUCAACAGCUCGCAGUCAAG,0.176
17,GGUCACGUCUCAAUCAACUCUACUCCAGGAGUUUGCUCCUGCAUUUUCAACAGCUCGCAGUCAAG,0.014
18,GGUCACGUCUCAAUCAACUCUAUCUCAGGAGUUUCCUCCUGUAUUCUCAACAGCUCGCAGUCAAG,0.0212
19,GGUCACGUCUCAAUCAACUCAAUCUCCAGGGAAAGCCCUGGCAUAGUCAACAGCUCGCAGUCAAG,0.0684
20,GGUCACGUCUCAAUCAACUCUUCUCCCAGGGAAAUCCCUGGUUAUGUCAACAGCUCGCAGUCAAG,-0.0391
21,GGUCACGUCUCAAUCAACUCCAAAGAGGGGGGGAAAACCCCUUUACCCUCCAAUUCAACAGCUCGCAGUCAAG,-0.268
22,GGUCACGUCUCAAUCAACUCCAUAGAGGGGGGGAAAACCCCUUUACCCUCGUCCUCAACAGCUCGCAGUCAAG,0.2
23,GGUCACGUCUCAAUCAACUCAAUCUCAGGAGUUUUCUCCUGUAUAUUCAACAGCUCGCAGUCAAG,0.144
